Data on 2 compounds can be found in US20200268852A1, “HEMATOPOIETIC RECOVERY FROM RADIATION INJURY” (priority 2013, published 2020).

Square brackets hold non-standard residues; d marks the D form. Peptide text beside a SMILES is read from it. * marks the point of attachment. dPhe(4-NHCONH2) = NC(=O)Nc1ccc(C[C@@H](N)C(=O)O)cc1; Dihydroorotyl(S) = O=C1C[C@@H](C(=O)*)NC(=O)N1; dPhe(4-Cl) = N[C@H](Cc1ccc(Cl)cc1)C(=O)O; Phe(4-NH2) = Nc1ccc(C[C@H](N)C(=O)O)cc1; d2Nal = N[C@H](Cc1ccc2ccccc2c1)C(=O)O; Lys(iPr) = CC(C)NCCCC[C@H](N)C(=O)O; d3Pal = N[C@H](Cc1cccnc1)C(=O)O

Test [1] has as its system C57BL/6 mice. The test can be described thus: Thymic regeneration in untreated (steady-state) young and aged mice. Conditions: young male mice; for mTEChi (MHC class II high medullary thymic epithelial cells) number: day 7 and 14; for thymic cellularity / thymic size: early time points (day 7 and 14) after treatment.
In test [2] the test system is C57BL/6 mice. The test can be described thus: Lymphoid reconstitution, treatment 24 h after SL-TBI. Conditions: spleen after SL-TBI. As for the experimental part:
FIGS. 5A-F show SSI administration after SL-TBI enhanced thymic regeneration and peripheral reconstitution. […] Thymi and spleens were analyzed at different time points. FIG. 5A, Absolute number of thymic cellularity and developing thymocytes 7 and 42 days after irradiation. FIG. 5B, Absolute number of thymic stromal cells. FIG. 5C, Total splenocytes and B cells were analyzed at 7, 24 and 48 days after SL-TBI. FIG. 5D, Absolute number of CD4^+ and CD4^+N T cells. FIG. 5E, Absolute number of CD8^+ and CD8^+N T cells. FIG. 5F, Absolute number of fibroblast, and endothelial cells.
We investigated the effects on lymphoid reconstitution when Degarelix was administered 24 h after exposure of SL-TBI. We irradiated B6 male mice and injected them 24 h hours later with vehicle or Degarelix.
We then investigated the effect of post-SL-TBI LHRH-Ant treatment in the peripheral reconstitution. Seven days after SL-TBI splenic cellularity was severity depleted in all groups.
(1 mg/mouse) in 100 ul. […] (BD Biosciences) or FLOWJO (Treestar Software).

In test [3] the test system is C57BL/6 allo-HSCT recipients. The test can be described thus: Thymic and peripheral reconstitution after allo-HSCT. The text has this: We, and others, have previously shown that SSA using LHRH-Ag promotes recovery from autologous and allo-HSCT (Goldberg et al., 2007; Sutherland et al., 2008). We therefore investigated the effects of LHRH-Ant pretreatment on male C57BL/6 allo-HSCT recipients on thymic and peripheral reconstitution.
Of note, the most abundant populations among these peripheral T cells subsets were naïve T cells, indicating a robust thymopoiesis in LHRH-Ant treated mice compared to controls. Many strategies for boosting immune reconstitution could also undesirably increase the risks of graft-versus-host disease (GVHD) in allo-HSCT recipients. We therefore evaluated the impact of LHRH-Ant treatment using an established murine GVHD model. […] LHRH-Ant treatment therefore enhances thymic output and peripheral T cell function without exacerbating post-transplant complications.

In the case of `CCNC(=O)[C@@H]1CCCN1C(=O)[C@H](CCCNC(=N)N)NC(=O)[C@H](CC(C)C)NC(=O)[C@@H](CC(C)C)NC(=O)[C@H](Cc1ccc(O)cc1)NC(=O)[C@H](CO)NC(=O)[C@H](Cc1c[nH]c2ccccc12)NC(=O)[C@H](Cc1c[nH]cn1)NC(=O)[C@@H]1CCC(=O)N1` [Lupron, leuprolide], in the test on C57BL/6 mice [1], the “mTEChi (MHC class II high medullary thymic epithelial cells) number” value was “initial decrease” and the “thymic cellularity / thymic size” value is given as “dramatic degenerative effect”.

For the compound `CC(=O)N[C@H](Cc1ccc2ccccc2c1)C(=O)N[C@H](Cc1ccc(Cl)cc1)C(=O)N[C@H](Cc1cccnc1)C(=O)N[C@@H](CO)C(=O)N[C@@H](Cc1ccc(NC(=O)[C@@H]2CC(=O)NC(=O)N2)cc1)C(=O)N[C@H](Cc1ccc(NC(N)=O)cc1)C(=O)N[C@@H](CC(C)C)C(=O)N[C@@H](CCCCNC(C)C)C(=O)N1CCC[C@H]1C(=O)N[C@H](C)C(N)=O` [Degarelix] (Ac-[d2Nal][dPhe(4-Cl)][d3Pal]S[Phe(4-NH2)](Dihydroorotyl(S))[dPhe(4-NHCONH2)]L[Lys(iPr)]P[dA]-NH2), the “total numbers of CD4+ and CD8+ T cells and subsets” value in the test on C57BL/6 mice [2] was “consistent increasing trend”. Besides, the “number of peripheral CD4+ and CD8+ T cell subsets” value in test [3] (3 months after transplant) is “significant increase”. The thymic cellularity result in test [3] (day 42, sustained for at least 3 months after transplant) is given as “significantly increased”. Besides, in the test on C57BL/6 mice [1], the “mTEChi (MHC class II high medullary thymic epithelial cells) number” value is recorded as “profound expansion” and the “thymic cellularity / thymic size” value is given as “rapid increase in thymic size”.
